Data published in PubChem BioAssay AID504332 (National Center for Advancing Translational Sciences (NCATS), 2011).
In all, about 350,000 compounds went through this assay and about 31,000 (8.9%) were called active. Inconclusive results, whose numbers are uncertain, are shown with a selection of clear calls. The call rests on the fitted dose curve; in most records, active means well fitted inhibition curve with a large enough effect; inconclusive means small, poorly fitted or top-dose-only effect; inactive means no such curve, though single readings can be large or run the other way. Potencies beside an inconclusive call are fits to weak or partial responses and may not hold up.

Biological target: Histone-lysine N-methyltransferase EHMT2 (Homo sapiens) (UniProt Q96KQ7)
Sequence of UniProt Q96KQ7 (Q96KQ7 whole entry, looked up): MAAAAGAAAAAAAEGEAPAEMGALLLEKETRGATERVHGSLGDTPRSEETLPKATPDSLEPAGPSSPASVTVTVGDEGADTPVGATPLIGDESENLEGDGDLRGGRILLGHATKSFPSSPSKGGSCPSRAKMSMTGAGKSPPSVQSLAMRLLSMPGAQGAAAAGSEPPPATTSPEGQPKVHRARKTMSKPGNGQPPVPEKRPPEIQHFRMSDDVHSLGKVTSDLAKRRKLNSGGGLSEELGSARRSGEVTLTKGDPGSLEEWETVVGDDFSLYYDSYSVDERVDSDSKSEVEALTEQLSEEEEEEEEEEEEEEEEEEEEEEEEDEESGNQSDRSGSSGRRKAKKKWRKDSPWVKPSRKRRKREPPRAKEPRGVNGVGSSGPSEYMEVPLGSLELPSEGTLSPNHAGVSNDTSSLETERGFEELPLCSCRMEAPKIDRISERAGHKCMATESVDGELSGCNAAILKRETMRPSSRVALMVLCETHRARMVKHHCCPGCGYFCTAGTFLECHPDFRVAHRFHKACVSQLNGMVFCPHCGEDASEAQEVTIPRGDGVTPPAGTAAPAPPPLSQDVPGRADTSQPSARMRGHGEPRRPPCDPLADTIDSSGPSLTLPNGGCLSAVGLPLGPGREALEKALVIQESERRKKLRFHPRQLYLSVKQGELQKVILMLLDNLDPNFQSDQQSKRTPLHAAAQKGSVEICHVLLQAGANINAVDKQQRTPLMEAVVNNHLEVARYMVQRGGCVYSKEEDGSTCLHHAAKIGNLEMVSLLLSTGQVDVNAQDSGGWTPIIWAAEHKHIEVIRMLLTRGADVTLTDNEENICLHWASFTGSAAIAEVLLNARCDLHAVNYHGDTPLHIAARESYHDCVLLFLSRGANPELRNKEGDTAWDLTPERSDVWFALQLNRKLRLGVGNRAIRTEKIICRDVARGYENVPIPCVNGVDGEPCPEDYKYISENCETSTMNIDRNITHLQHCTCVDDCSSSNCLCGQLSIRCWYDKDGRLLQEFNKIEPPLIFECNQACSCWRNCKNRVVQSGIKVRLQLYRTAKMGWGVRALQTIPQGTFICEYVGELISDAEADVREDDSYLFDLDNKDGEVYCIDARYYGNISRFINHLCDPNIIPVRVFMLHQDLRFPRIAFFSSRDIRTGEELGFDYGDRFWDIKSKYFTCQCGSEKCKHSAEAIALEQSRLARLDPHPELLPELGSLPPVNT
Assay: qHTS Assay for Inhibitors of Histone Lysine Methyltransferase G9a; further: nearly all actives have a fitted effect of over 75% in size
Conditions: G9a H3K9 monomethylation, AlphaScreen, 2 h; activity, negative = inhibition: at 59 µM (top of the series) unless noted
How it was run: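 Compounds were preincubated with 20 nM G9a for 15 min, after which biotinylated H3K9 peptide (500 nM) and SAM (20 uM) started a 2 h room-temperature reaction. Monomethylated product was quantified by antibody-based AlphaScreen chemiluminescence.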
On the % scale 0 is the no-effect control and ±100 the full control effect; potency means the concentration at half of the fitted maximal effect; tags describe the fitted curve by direction and shape.

| SMILES | Potency | activity, negative = inhibition |
| --- | --- | --- |
| CCCCn1c(=O)n(-c2ccc(Br)cc2F)c(=O)c2c3c(sc21)CN(C(C)=O)CC3 | inactive |  |
| COc1ccc(-c2csc(Nc3ccccc3)[n+]2CC(O)c2ccc([N+](=O)[O-])cc2)cc1 (configuration not stated) | active: 14.1 µM |  |
| CCC(=O)N1CCc2cc(Br)cc(S(=O)(=O)NCc3ccco3)c21 | active: 44.7 µM |  |
| Cc1ccc(-c2cc(C(=O)N3CC(C)CC(C)C3)c3ccccc3n2)o1 (configuration not stated) | active: 8.91 µM |  |
| CCOC(=O)c1cccc(NC(=O)c2ccc3c(c2)C(=O)N(CC2CCCO2)C3=O)c1 (configuration not stated) | inactive |  |
| CC1CCC(NC(=O)Cn2c(=O)oc3cc(S(=O)(=O)N4CCCC4)ccc32)CC1 (configuration not stated) | inconclusive: 89.1 µM [inhibitor, single point] |  |
| O=C1NC(c2ccc(-c3ccccc3[N+](=O)[O-])o2)C(C(=O)c2ccc(F)cc2)C(O)(C(F)(F)F)N1 (configuration not stated) | inconclusive: 28.2 µM [inhibitor, single point] |  |
| CCCCCc1cc(=O)oc2c(C(CCN3CCCC(C)C3)c3ccc(OC)cc3)c(OC)cc(OC)c12 (configuration not stated) |  | inconclusive: -74.1% [inhibitor] |
| COc1ccc(C(CC(=O)O)NC(=O)COc2cc(C)ccc2C)cc1OC (configuration not stated) | active: 31.6 µM |  |
| O=C1OCC(c2ccccc2)=C1c1ccc(S(=O)(=O)N2CCOCC2)s1 |  | inconclusive: -75.6% [inhibitor] |
| Oc1c(C(c2ccccc2)N2CCN(Cc3ccccc3)CC2)sc2nc(-c3ccco3)nn12 (configuration not stated) | inconclusive: 14.1 µM [inhibitor, partial curve, poor fit] |  |
| COc1cc(CNCc2ccccn2)ccc1OCc1c(Cl)cccc1Cl | inactive |  |
| CC(=O)c1cccc(NC(=O)Cn2cnc(S(=O)(=O)N3CCC(C)CC3)c2)c1 |  | inactive: -7.16% [at 0.0925 µM] |
| COc1ccc(-c2ccc(NS(=O)(=O)c3cc([N+](=O)[O-])ccc3C)cc2)nn1 | inconclusive: 25.1 µM [inhibitor, single point] |  |
| CCOC(=O)c1c(-c2ccccc2)[nH]c2ccc(O)cc12 |  | inconclusive: -51.7% [inhibitor] |
| CCOC(=O)c1ccc(NC(=S)N(CCN(C)C)Cc2cccs2)cc1 | inconclusive: 35.5 µM [inhibitor, partial curve] |  |
| O=C(N=C1c2ccccc2CN1c1ccccc1)c1cccc([N+](=O)[O-])c1 | active: 50.1 µM |  |
| COc1ccc(N2CCN(C(=O)C(CCSC)N=C3NS(=O)(=O)c4ccccc43)CC2)cc1 (configuration not stated) |  | inconclusive: -62.3% [inhibitor] |
| Cc1nnc(NC(=O)c2nc(S(=O)(=O)Cc3ccccc3C)ncc2Cl)s1 | inconclusive: 31.6 µM [inhibitor, full curve, poor fit] |  |
| COc1ccc(N=N/C(=C\O)C(=O)c2ccco2)cc1 | inconclusive: 35.5 µM [inhibitor, full curve] |  |
| COc1ccc(NC(=O)Cn2c(SCc3cccc(Cl)c3)nc3ccncc32)c(OC)c1OC | inconclusive: 3.98 µM [inhibitor, partial curve] |  |
| Cc1ccccc1NC(=S)NC(NC(=O)COc1ccccc1)C(Cl)(Cl)Cl (configuration not stated) | inactive |  |
| C/C(=N/NC(=O)c1cc(-c2ccc(Br)s2)[nH]n1)c1ccco1 | inconclusive: 89.1 µM [inhibitor, single point] |  |
| O=C(COc1ccc(/C=N/NC(=O)c2cc3ccccc3o2)cc1Cl)Nc1ccccc1 |  | inconclusive: -59.5% [inhibitor] [at 12.7 µM] |

| SMILES | Potency | activity, negative = inhibition |
| --- | --- | --- |
| CCCCCOCC1CC(C/C(C)=N/Nc2nc(-c3ccccc3)cs2)C(=O)O1 (configuration not stated) | active: 39.8 µM |  |
| Cc1cc(C)n(-c2ccc(C(=O)Nc3cccc(S(=O)(=O)N4CCCC4)c3)cc2)n1 | inconclusive: 56.2 µM [inhibitor, partial curve, poor fit] |  |
| CC(C)CCC(O)(CCC(C)C)C(=O)NNc1ccccc1 | active: 50.1 µM |  |
| CCOP(=O)(O)c1ccccc1OCCOCCOc1ccccc1P(=O)(O)OCC | active: 56.2 µM |  |
| Cc1cc(C)c2c(N=NN(C)C)[nH]nc2n1 | active: 44.7 µM |  |
| CC(Oc1ccccc1)C(=O)NC1=NCCS1 (configuration not stated) | inconclusive: 89.1 µM [inhibitor, partial curve, poor fit] |  |
| COc1cccc(N(C(=O)c2snc(C(N)=O)c2N)C(C(=O)NCC2CCCO2)c2cccs2)c1 (configuration not stated) | active: 35.5 µM |  |
| Cc1ccccc1-c1cc(C(=O)NCc2cccs2)nn1CC1CC(c2cccc([N+](=O)[O-])c2)=NO1 (configuration not stated) |  | inactive: -6.39% [at 2.33 µM] |
| CCCCNC(=O)C1CCN(S(=O)(=O)c2cc(Br)cc3c2N(C(=O)CC)CC3)CC1 | inactive |  |
| COc1ccc(-c2nnc(SCC(=O)Nc3cccc(F)c3)s2)cc1 | inactive |  |
| Cc1ccc(NCc2cccn2-c2nnc(N3CCCCCC3)s2)cc1 | inactive |  |
| CC(C)COc1ccc(/C(O)=C2/C(=O)C(=O)N(CCN(C)C)C2c2ccncc2)cc1 (configuration not stated) | inconclusive: 15.8 µM [inhibitor, partial curve, poor fit] |  |
| CC(C(=O)Nc1ncn[nH]1)N1C(=O)c2ccccc2C1=O (configuration not stated) | inconclusive: 31.6 µM [inhibitor, single point] |  |
| O=C(COc1ccccc1[N+](=O)[O-])NCCCN1CCCC1=O |  | inactive: -2.37% [at 12.7 µM] |
| COc1ccc2sc(C)[n+](C)c2c1 | inconclusive: 1.12 µM [inhibitor, full curve, poor fit] |  |
| COc1ccc(OC)c(/C=N/NC(=O)CN2CCSCC2)c1 | inconclusive: 11.2 µM [inhibitor, partial curve, poor fit] |  |
| N#CC1=C(N)SC2(CCCCC2)SC1c1ccccc1 (configuration not stated) | active: 7.94 µM |  |
| O=C(Nc1cccc(C2OCCCO2)c1)c1cccs1 | inconclusive: 89.1 µM [inhibitor, single point] |  |
| CCCNC(=O)Cn1nc(C(F)(F)F)cc1C |  | inactive: 20.8% [at 12.7 µM] |
| COc1cccc(CNC(=O)c2c(C)nn(-c3cccc(C)c3)c2-n2cccc2)c1 | inactive |  |
| COc1cccc(NS(=O)(=O)c2ccc3[nH]cc(C(=O)NCCCOC(C)C)c(=O)c3c2)c1 | inconclusive: 15.8 µM [inhibitor, partial curve, poor fit] |  |
| Cc1cccc(OCC(=O)Nc2nc(-c3ccncc3)cs2)c1 |  | inactive: -18.8% [at 12.7 µM] |
| Cc1ccc(C(=O)Nc2nc(-c3cccnc3)cs2)o1 |  | inconclusive: -92.2% [inhibitor] |
| O=C(COC(=O)COc1ccc(Br)cc1)Nc1ccc2c(c1)OCCO2 | inactive |  |

| SMILES | Potency | activity, negative = inhibition |
| --- | --- | --- |
| COc1ccc(S(=O)(=O)N2CCN(C3CCN(Cc4ccccc4)CC3)CC2)cc1 | inactive |  |
| Cc1cccc(C)c1OCC(=O)NNC(=O)CCNC(=O)c1ccco1 |  | inactive: 15.7% [at 0.501 µM] |
| COCCNC(=S)NCCc1ccc(Cl)cc1Cl | inconclusive: 70.8 µM [inhibitor, single point] |  |
| CCOc1cccc(C2C(C(=O)c3ccco3)=C(O)C(=O)N2Cc2ccncc2)c1 (configuration not stated) | active: 35.5 µM |  |
| CC(=O)c1ccc(NC(=O)C2CCC(CNS(=O)(=O)c3ccc(Br)s3)CC2)cc1 (configuration not stated) | inactive |  |
| NC(=O)c1ccc(NC(=O)CN2CCN(S(=O)(=O)c3ccc4c(c3)OCCO4)CC2)cc1 |  | inactive: 10.3% [at 2.33 µM] |
| CCC(CC)=NNc1ccc(S(N)(=O)=O)cc1[N+](=O)[O-] | inconclusive: 44.7 µM [inhibitor, partial curve] |  |
| CCN(CC(=O)Nc1ccc(NC(C)=O)cc1)C(=O)c1cccc(-n2cccc2)c1 | active: 50.1 µM |  |
| O=C(C1=C(O)C(=O)N(c2ncccn2)C1c1ccc(Cl)c(Cl)c1)c1ccco1 (configuration not stated) | active: 39.8 µM |  |
| O=C(NCc1ccc2c(c1)OCO2)c1ccc(N2CCCCCC2)c([N+](=O)[O-])c1 | active: 35.5 µM |  |
| O=C(/C=C\Nc1ccc2c(c1)OCO2)c1ccc(Cl)s1 | inconclusive: 79.4 µM [inhibitor, single point] |  |
| COc1cccc(C(=S)N2CCCC2)c1OC | active: 8.91 µM |  |
| CCc1cc2cc(C)cc(C)c2[nH]c1=S | active: 1.41 µM |  |
| Cc1c(Cl)cccc1NC(=O)COC(=O)Cn1cnc2c1c(=O)n(C)c(=O)n2C |  | inactive: -13% [at 2.33 µM] |
| COc1ccc(N(C(=O)c2ccco2)C(C(=O)NC2CCCC2)c2ccncc2)cc1OC (configuration not stated) | active: 70.8 µM |  |
| Cc1cc(C(=O)N2CCCC(N3CCN(c4ccccc4C)CC3)C2)n(C)n1 (configuration not stated) | inconclusive: 35.5 µM [inhibitor, partial curve, poor fit] |  |
| Cc1ccc(C(=O)Nc2nnc(S(=O)(=O)N3CCOCC3)s2)cc1 | inconclusive: 3.16 µM [inhibitor, partial curve, poor fit] |  |
| O=C(Nc1ccc(S(=O)(=O)Nc2nccs2)cc1)c1ccc(S(=O)(=O)N2CCOCC2)cc1 | inconclusive: 39.8 µM [inhibitor, single point] |  |
| COc1ccc(CCC(=O)N2CCN(c3ccc([N+](=O)[O-])cc3)CC2)cc1OC | inactive |  |
| Cc1cc(C(=O)N/N=C/c2ccc(O)c([N+](=O)[O-])c2)c(C)n1-c1ccc(F)cc1 | inconclusive: 25.1 µM [inhibitor, single point] |  |
| O=C(CCc1nnc2ccc(NCc3ccco3)nn12)Nc1cc(F)ccc1F | inactive |  |
| O=C(Nc1cccc(C(=O)Nc2ccc(Br)cc2)c1)c1ccccc1 | inactive |  |
| CN1CCN(C(=O)/C(=C/c2ccccc2Cl)NC(=O)c2ccccc2)CC1 | inconclusive: 89.1 µM [inhibitor, single point] |  |
| CCC(C)c1ccccc1N1CC(C(=O)N2CCN(S(=O)(=O)c3ccc(F)cc3)CC2)CC1=O (configuration not stated) | inconclusive: 79.4 µM [inhibitor, single point] |  |
